# Assay results taken from the BET-seq Pho4 binding data (Le et al. 2018).
# The other results are listed elsewhere or left out. The energies were worked out here from pooled read counts, against the library average; single values are noisy.
# Biological target: T1, Pho4 (S. cerevisiae) (UniProt P07270)
# T1 sequence: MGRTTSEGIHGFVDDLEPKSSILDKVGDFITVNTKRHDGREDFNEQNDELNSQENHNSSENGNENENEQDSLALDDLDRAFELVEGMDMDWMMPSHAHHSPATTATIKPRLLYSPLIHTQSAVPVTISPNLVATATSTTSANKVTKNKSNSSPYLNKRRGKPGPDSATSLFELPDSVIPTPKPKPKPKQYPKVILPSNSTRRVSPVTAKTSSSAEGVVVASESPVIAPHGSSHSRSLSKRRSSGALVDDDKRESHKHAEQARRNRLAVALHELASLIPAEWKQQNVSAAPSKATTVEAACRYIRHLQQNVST
# Experiment: relative binding free energy (BET-seq); higher = weaker binding
# Settings: reference: library average
row,Sequence,relative binding free energy [kJ/mol]
1,AAAGGCACGTGGGCTG,-0.837
2,TTTAGCACGTGAGAAG,0.418
3,CTGGGCACGTGGTAAT,-0.628
4,TGTGCCACGTGTAAGT,-0.209
5,AGATACACGTGGGGGC,-0.251
6,GGTGGCACGTGGTCTA,-0.753
7,GTGGTCACGTGTTATA,0.711
8,GTGAGCACGTGGTGCG,-0.544
9,GGTTGCACGTGGGCGT,-0.0418
10,GTGTTCACGTGACTGG,1.26
11,TACGTCACGTGCTTTT,0.544
12,TAGGTCACGTGGCGAG,0.418
13,GGAGTCACGTGGGGAT,0.544
14,TAGTACACGTGGGCTG,0.126
15,AATCGCACGTGGCGGT,0.251
16,TTCAGCACGTGGTTTT,-0.167
17,AGAGTCACGTGTTGAG,0.544
18,AATATCACGTGTGTTG,0.377
19,TATGACACGTGGTTAA,-0.544
20,GGGGCCACGTGTGGTT,0
21,ATGGTCACGTGAGGAG,1.3
22,GTGGGCACGTGATCAT,0.209
23,GTGTTCACGTGAGTTA,1.92
24,AAGGTCACGTGCGTTA,0.251
25,GTTTGCACGTGGAACT,0.251
26,AACGGCACGTGTTGTT,-0.126

row,Sequence,relative binding free energy [kJ/mol]
1,ATGGTCACGTGCGTAA,0.209
2,TTGTGCACGTGGCAGA,0
3,GGATGCACGTGATCGG,0.586
4,CTGGACACGTGGGCTT,-0.335
5,GGCATCACGTGGCGTA,1.34
6,TGTTTCACGTGAGCGA,1
7,TCAGTCACGTGGTAGT,0.251
8,GGTGACACGTGGGGCG,-0.669
9,GAGTGCACGTGATATT,0.795
10,TTGAGCACGTGAGATG,0.879
11,GTTTACACGTGTGTCG,0.544
12,CTTTGCACGTGGGGTG,-0.544
13,AAGTGCACGTGGTAGC,-0.293
14,GGAGTCACGTGAAAGG,1.55
15,TCTTACACGTGCTGTT,0.293
16,TGACTCACGTGTTATG,0.92
17,TCAGTCACGTGTGTGA,0.544
18,TGGCTCACGTGGTTGA,0.46
19,GTAGACACGTGGGTGA,-0.628
20,AGTGTCACGTGCTTTT,-0.209
21,TGGTTCACGTGGCTAT,0.628
22,TTAAGCACGTGTCAGG,-0.335
23,TGCTTCACGTGTGAGA,1.21
24,GGAGTCACGTGGAGTA,0.0418
25,ATGTGCACGTGGGGTG,-0.92
26,GCTTGCACGTGAGGGC,0.962

row,Sequence,relative binding free energy [kJ/mol]
1,GTGTACACGTGGGCAA,-0.0837
2,GTTAACACGTGCGGGT,0.0837
3,GTTTGCACGTGTATCT,0.669
4,GTAGTCACGTGAGAAT,1.21
5,TAGTTCACGTGGTCGA,0.46
6,TTTTGCACGTGAAGTA,1
7,GGGGCCACGTGCGTTG,-0.711
8,GCGGTCACGTGTTTGG,0.795
9,CGGTCCACGTGGGAGG,-0.628
10,GAATTCACGTGTATAG,1.3
11,TTTGCCACGTGATTGT,0.628
12,TTTTTCACGTGAATCT,1.05
13,TGGCTCACGTGAGTTG,0.92
14,TTATACACGTGGTTCG,-0.502
15,TGACTCACGTGAGGGT,1
16,GTTGGCACGTGTTGCG,-0.126
17,TTTTGCACGTGTGTGC,0.293
18,GCAGGCACGTGAGTGT,0.586
19,TGGTTCACGTGTATCC,1.26
20,AGTCACACGTGTGATG,0.753
21,GTATGCACGTGTAGGA,0.502
22,GGTTACACGTGGGTCA,-0.209
23,CATTTCACGTGGGCGT,1.09
24,TGGAGCACGTGGGATC,-0.0837
25,AGTCGCACGTGGGAGT,-0.293
26,TAGAACACGTGAGCGG,1.46

row,Sequence,relative binding free energy [kJ/mol]
1,TGTCTCACGTGTATAT,1.17
2,GTGATCACGTGGCGAT,0
3,TATGTCACGTGGTCTA,-0.544
4,TTATTCACGTGTGAAA,1.67
5,CGGCGCACGTGTTGTG,-0.628
6,TGCGGCACGTGTGAAT,-0.251
7,GGTGACACGTGATTGG,0.377
8,TTTTCCACGTGTAGGG,0.0837
9,TGTGGCACGTGCAGCG,-0.628
10,TCGTACACGTGGGTAT,0.0837
11,CGGCGCACGTGTTGGT,-0.586
12,AACGGCACGTGGGTAG,-0.753
13,GAGAGCACGTGTGGAT,-0.167
14,CTATGCACGTGTGGGT,-0.335
15,CGATGCACGTGAGGAG,0.753
16,GAGGACACGTGAGGAT,1.76
17,AGGGTCACGTGAGAAT,1.09
18,ATGGGCACGTGTGCTT,0.0418
19,TTGTGCACGTGCTGTG,-0.167
20,GGGGCCACGTGGTCTG,-1.42
21,TAGTTCACGTGGGGAC,1.17
22,ATTTGCACGTGGCCTT,-0.502
23,GAGGGCACGTGATAGG,0.293
24,AGCTTCACGTGGGCGC,1.88
25,GCTGGCACGTGTTGTA,-0.628
26,TGCTGCACGTGAGGTC,0.795

row,Sequence,relative binding free energy [kJ/mol]
1,CAGGACACGTGAGTTG,1.17
2,CTGTGCACGTGTTGAT,-0.837
3,TTCGTCACGTGGGCAT,-0.126
4,GCGTTCACGTGTATTA,1.26
5,TCGTTCACGTGAATTA,2.01
6,AGATACACGTGGTAGT,0
7,TAGGTCACGTGAGGTT,1.21
8,GTGGTCACGTGTAGAA,0.92
9,GTTAACACGTGGGGGG,-0.418
10,TAGAACACGTGTGGGG,0.335
11,GTAGACACGTGGTTTA,-0.251
12,AGAGGCACGTGGGACG,-1.09
13,TTTAGCACGTGTGCAG,-0.669
14,TTTTGCACGTGGCGTC,-0.628
15,GGGTTCACGTGTTTGT,1.51
16,AGTAGCACGTGAGTTT,1.17
17,TATATCACGTGTGCGG,0.251
18,TAGTGCACGTGTAAAT,-0.544
19,AATGTCACGTGTCATT,0.167
20,TTATACACGTGGTAGA,0.126
21,TCGGACACGTGAGGAG,0.92
22,TGGCACACGTGGTTTG,0.251
23,TGGTTCACGTGAATGC,1.34
24,AGAGTCACGTGCAATG,1
25,TTGTGCACGTGGGGTG,-0.669
26,TCATTCACGTGTTGGT,1.42

row,Sequence,relative binding free energy [kJ/mol]
1,TGGGCCACGTGTGACG,0.126
2,CGTGTCACGTGCAGGG,-0.46
3,GTGGACACGTGTGGTA,1.21
4,CTTATCACGTGAGTAG,1.46
5,TGTATCACGTGTTGCT,0.46
6,CTGGTCACGTGGGTAG,0.0418
7,ACCGGCACGTGTTGGT,-0.167
8,ACTGTCACGTGGAAGG,0.711
9,AAGTTCACGTGACGGT,0.753
10,GCTTGCACGTGGTGTA,-0.293
11,GACGTCACGTGGTGGC,0.962
12,GGAACCACGTGTGTTT,0.293
13,TGGGACACGTGGTGGA,0.126
14,GGTTACACGTGAAGGA,1.97
15,GCGCTCACGTGGGTTA,0.628
16,ATGTACACGTGCGGTA,0
17,TGTGTCACGTGGCGTA,0.167
18,AATAGCACGTGTGGCA,0.502
19,ATACTCACGTGGTGTA,0.293
20,TGTCTCACGTGTTGTA,1.09
21,GTGTGCACGTGTTGCT,-0.335
22,ATTGACACGTGTTTTG,0.418
23,TGACGCACGTGGCGGG,-0.795
24,GGATGCACGTGAGAAG,1.51
25,GTTTGCACGTGCGTTT,0.418
26,GGTCGCACGTGGTGGT,-0.0837

row,Sequence,relative binding free energy [kJ/mol]
1,TATGGCACGTGTGGGG,0
2,TGCTGCACGTGGAGGC,0.0418
3,GAGGCCACGTGGGTTG,-1.09
4,TGGGTCACGTGATAGA,0.837
5,TGGTTCACGTGGTATA,0.795
6,TGAATCACGTGTTAGA,0.669
7,TTTGGCACGTGGTACT,-0.795
8,GGCTACACGTGGTAAG,0.502
9,TTTGACACGTGGGACT,0.209
10,ATGGGCACGTGGGACG,-0.92
11,TATCTCACGTGTGGAA,1.42
12,ATTCTCACGTGGTATA,0.628
13,TGTGACACGTGGGTTA,-0.669
14,TTTGTCACGTGTCGCA,0.377
15,TGTAACACGTGGCGGT,0.0418
16,TCTGCCACGTGTTGTT,0.167
17,TGGTGCACGTGAGAAT,1.34
18,AGTCACACGTGTAGTG,0.126
19,TAATTCACGTGGCTGG,1.34
20,TATGTCACGTGCACGG,0.418
21,CACGGCACGTGGGGTG,-0.837
22,TTCGTCACGTGGCTTT,0.0418
23,TAATTCACGTGTCGAT,0.92
24,AAGGGCACGTGGATAT,-0.502
25,ATTTACACGTGTGGCG,0.879
26,GTAAGCACGTGACTTT,0.628

row,Sequence,relative binding free energy [kJ/mol]
1,AGCGTCACGTGGAGTG,0.753
2,TAATGCACGTGTATTA,-0.418
3,GATGTCACGTGTGGGG,1.13
4,CGTGGCACGTGACTGG,-0.46
5,TTGTCCACGTGTCATG,0.377
6,ATGTTCACGTGAACGG,1.55
7,CCGGGCACGTGTAGTT,0.335
8,TGTAGCACGTGGGTTC,-0.544
9,AGGATCACGTGAATTG,0.962
10,TTCGGCACGTGGTCAG,-1.21
11,TTTCGCACGTGTTCTG,-0.0418
12,TGTGTCACGTGGAACT,1.3
13,CTTTGCACGTGGTTTA,-0.544
14,GGCGGCACGTGTGACG,0.0418
15,ACTTACACGTGTGGGA,1.34
16,AATCTCACGTGGGTTA,0.502
17,AGGTTCACGTGTTATT,1.3
18,ACCGTCACGTGGGGGT,-0.167
19,GGGGCCACGTGGTTGA,-0.711
20,ACGTGCACGTGGGGAA,-0.586
21,AGCGGCACGTGGTGGA,-0.544
22,TTTTGCACGTGAGATG,0.669
23,TTCGTCACGTGTTCTT,0.335
24,CTGGACACGTGTTTAG,0.0418
25,TATGGCACGTGCTTTT,-0.0837
26,GGGGGCACGTGAATGT,0.795

row,Sequence,relative binding free energy [kJ/mol]
1,ATTTCCACGTGTTGTG,-0.0837
2,AAGGTCACGTGACTGT,1.63
3,AGTAACACGTGAAAGG,1.21
4,TTTTACACGTGCTTAT,-0.0418
5,TTAGGCACGTGCTATG,-0.502
6,TCTGACACGTGTTGTT,0.92
7,ATTGGCACGTGTCGGC,-0.251
8,GGGAGCACGTGAATGG,0.586
9,TTTAGCACGTGATCGA,0.335
10,ATGGACACGTGGTCGT,-0.418
11,CGTGTCACGTGAAAGG,0.628
12,TAGCTCACGTGGCTTT,1.46
13,GTTGTCACGTGTATGA,0.628
14,CAAAACACGTGTGGGG,0.586
15,CGGTACACGTGTTGGC,0.879
16,CAGCTCACGTGTGGGG,0.544
17,ACAGGCACGTGGGGGG,-1.09
18,TTGGCCACGTGGGCAT,-1
19,CGGGTCACGTGGAATT,0.837
20,GCTAGCACGTGGGTGG,-0.879
21,AGAGTCACGTGAGCGT,0.962
22,TTGGCCACGTGTTGTC,0.126
